{
  "source": "PubChem BioAssay AID1460",
  "about": "(National Center for Advancing Translational Sciences (NCATS), 2008)",
  "note": "Several values for one entry are separate records, joined by “and”; a condition that tells them apart may be missing. Equal values may be shown once. In all, about 270,000 compounds went through this assay and about 5,800 (2.1%) were called active. The shares of active, inactive and inconclusive entries below differ from those in the screen. The call rests on the fitted dose curve; in most records, active means well fitted inhibition curve with a large enough effect; inconclusive means small, poorly fitted or top-dose-only effect; inactive means flat fitted curve, though single readings scatter. A potency beside an inconclusive call is a rough fit, not a confirmed value. Potency means the concentration at half of the fitted maximal effect; tags describe the fitted curve by direction and shape.",
  "data": [
    {"molecular_target": "Microtubule-associated protein tau (Homo sapiens) (UniProt P10636)", "sequence (P10636 whole entry, looked up, the tested form may be a part)": "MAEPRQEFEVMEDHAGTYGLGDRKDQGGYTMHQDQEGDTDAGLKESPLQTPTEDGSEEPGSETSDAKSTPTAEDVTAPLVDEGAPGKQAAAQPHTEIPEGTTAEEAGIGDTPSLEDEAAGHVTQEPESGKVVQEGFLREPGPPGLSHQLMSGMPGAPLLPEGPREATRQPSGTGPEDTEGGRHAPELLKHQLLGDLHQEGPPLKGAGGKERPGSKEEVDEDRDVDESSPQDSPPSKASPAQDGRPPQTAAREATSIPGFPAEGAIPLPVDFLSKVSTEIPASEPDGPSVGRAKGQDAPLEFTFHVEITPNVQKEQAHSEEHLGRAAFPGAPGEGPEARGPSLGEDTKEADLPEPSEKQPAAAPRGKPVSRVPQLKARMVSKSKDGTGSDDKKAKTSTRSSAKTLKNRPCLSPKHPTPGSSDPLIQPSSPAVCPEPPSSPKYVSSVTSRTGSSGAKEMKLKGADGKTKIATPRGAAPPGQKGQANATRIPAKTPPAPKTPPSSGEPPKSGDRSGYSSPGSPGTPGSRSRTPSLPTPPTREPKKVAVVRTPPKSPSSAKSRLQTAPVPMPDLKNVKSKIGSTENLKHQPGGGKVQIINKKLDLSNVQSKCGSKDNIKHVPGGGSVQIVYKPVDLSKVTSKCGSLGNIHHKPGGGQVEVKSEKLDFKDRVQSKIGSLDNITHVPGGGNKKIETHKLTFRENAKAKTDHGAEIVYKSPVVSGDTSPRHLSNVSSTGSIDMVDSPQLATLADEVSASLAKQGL", "test": "qHTS for Inhibitors of Tau Fibril Formation, Thioflavin T Binding; further: nearly all actives have a fitted effect of over 55% in size", "settings": "recombinant tau K18 P301L (four-repeat tau fragment), heparin-induced fibrillization, ThT fluorescence; series mostly up to 57.4 µM", "how_it_was_run": "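Aggregation was driven by heparin (20 uM final) acting on recombinant tau […] bearing P301L in 100 mM sodium acetate pH 7; fibrils were detected with Thioflavin T.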", "values": [
      {"compound": "COc1ccc(-c2csc(NC(=O)c3ccc(OCC(=O)N4CCOCC4)c(OC)c3)n2)cc1", "Potency": "inconclusive: 10 µM [inhibitor, partial curve]"},
      {"compound": "O=C(COc1ccccc1Cl)N1CCN(c2ccc([N+](=O)[O-])c(N3CCOCC3)c2)CC1", "Potency": "active: 12.6 µM"},
      {"compound": "N#Cc1cc(C(=O)c2cc(F)ccc2O)cn(-c2nccs2)c1=O", "Potency": "inconclusive: 25.1 µM [inhibitor, partial curve]"},
      {"compound": "CN(C)CCNc1nc2sc3c(c2c(=O)n1CCc1ccccc1)CCCCC3", "Potency": "inconclusive: 22.4 µM [inhibitor, single point]"},
      {"compound": "CCOC(=O)c1ccc2nc(NC(=O)c3ccco3)sc2c1", "Potency": "inconclusive: 2.82 µM [inhibitor, full curve, poor fit]"},
      {"compound": "O=C(COC(=O)c1ccc([N+](=O)[O-])s1)Nc1ccc(Cl)cn1", "Potency": "inconclusive: 22.4 µM [inhibitor, partial curve, poor fit]"},
      {"compound": "COc1ccc(/C=N/OCC(=O)NC(c2ccccc2)c2ccccc2)c(OC)c1", "Potency": "inconclusive: 1.41 µM [inhibitor, partial curve]"},
      {"compound": "O=C1NC(c2ccccc2)(C(F)(F)F)C(=O)N1Cc1cccnc1", "note": "(stereo unspecified)", "Potency": "inactive"},
      {"compound": "Cc1c(C(=O)N2CCCC2)sc(NC(=O)c2ccc(Cl)cc2)c1C#N", "Potency": "inconclusive: 10 µM [inhibitor, partial curve]"},
      {"compound": "COc1ccc2oc(=O)cc(CN3CCN(C(=O)c4ccccc4Br)CC3)c2c1", "Potency": "inactive"},
      {"compound": "CC(=O)NCCc1c[nH]c2ccc(O)cc12", "Potency": "inactive and inconclusive: 39.8 µM [inhibitor, single point]"},
      {"compound": "CC1(C)CCc2cc(-c3ccnc(=S)[nH]3)ccc2O1", "Potency": "inconclusive: 25.1 µM [inhibitor, partial curve, poor fit]"},
      {"compound": "CCOc1ccc2nc(N3CCN(C(=O)C(C)C)CC3)sc2c1", "Potency": "inconclusive: 1 µM [inhibitor, partial curve]"},
      {"compound": "O=[N+]([O-])c1ccc(Nc2ccccc2F)nc1", "Potency": "inconclusive: 11.2 µM [inhibitor, partial curve]"},
      {"compound": "C=CCn1c(C)cc(C(=O)CSc2nc3ccccc3c(=O)[nH]2)c1C", "Potency": "inconclusive: 35.5 µM [inhibitor, partial curve, poor fit]"},
      {"compound": "CCN1CCn2c3c(c4cc(Cl)ccc42)CCCC31", "note": "(stereo unspecified)", "Potency": "inconclusive: 39.8 µM [inhibitor, partial curve]"},
      {"compound": "Cc1nc(-n2nc(C)c(CCC(C)C)c2C)sc1C(=O)Nc1cccc(Cl)c1C", "Potency": "inactive"},
      {"compound": "CCOC(=O)c1c(NC(=O)c2ccccc2C)sc2c1CCCC2", "Potency": "active: 31.6 µM"},
      {"compound": "C=CCN1C(=O)C(O)(CC(=O)c2ccc(N)cc2)c2ccccc21", "note": "(stereo unspecified)", "Potency": "inactive"},
      {"compound": "O=C1OC(/C=C/c2ccccc2)=NC/1=C\\c1cccnc1", "Potency": "inactive"},
      {"compound": "Cc1ccc2[nH]c(=O)c(-c3noc(C(C)C)n3)cc2c1", "Potency": "inconclusive: 15.8 µM [inhibitor, partial curve, poor fit]"},
      {"compound": "COc1cc(C(=O)OCC(=O)N2CCCCC2C)cc(NC(=O)c2cccs2)c1OC", "note": "(stereo unspecified)", "Potency": "inconclusive: 10 µM [inhibitor, partial curve]"},
      {"compound": "COCCNC(=O)CN(C(=O)CCC(=O)Nc1ccccn1)c1ccc(F)cc1", "Potency": "inactive"},
      {"compound": "Cc1c(C(O)CN2CCC(C(N)=O)CC2)c2ccccc2n1C", "note": "(stereo unspecified)", "Potency": "inconclusive: 31.6 µM [inhibitor, partial curve, poor fit]"},
      {"compound": "COc1ccc(C(=O)CSc2nnc(-c3ccco3)c(-c3ccco3)n2)cc1", "Potency": "active: 14.1 µM"},
      {"compound": "COc1ccccc1-n1c(-c2ccccc2)c[nH]c1=S", "Potency": "inactive"},
      {"compound": "COc1ccccc1-c1ccc2ncnc(N(C)C)c2c1", "Potency": "inactive"},
      {"compound": "O=C(C1CCC(CNS(=O)(=O)c2cccs2)CC1)N1CCN(c2ccc(Cl)cc2)CC1", "note": "(stereo unspecified)", "Potency": "inconclusive: 2.51 µM [inhibitor, full curve]"},
      {"compound": "Cc1cc(N=Nc2c(O)c3ccccc3[nH]c2=O)ccc1N=Nc1ccc(C(=O)N(C)C)cc1", "Potency": "active: 2.24 µM"},
      {"compound": "O=C(O)COc1ccc2c(c1)CCCC2", "Potency": "inactive"},
      {"compound": "COc1ccc(Cl)cc1NC(=O)COC(=O)CC(C)(C)CC1=NS(=O)(=O)c2ccccc2N1", "Potency": "inactive"},
      {"compound": "O=c1cc2nc(-c3ccccc3F)nc(SCc3ccc(Br)cc3)n2[nH]1", "Potency": "inconclusive: 14.1 µM [inhibitor, partial curve, poor fit]"},
      {"compound": "COc1cccc(CNC(=O)CCC2CCCN(C(=O)c3cccc4c(C)c(C)[nH]c34)C2)c1", "note": "(stereo unspecified)", "Potency": "inconclusive: 31.6 µM [inhibitor, partial curve]"},
      {"compound": "C/C(=N\\O)c1ccc2c3c([nH]c2c1)CCCC3", "Potency": "inconclusive: 8.91 µM [inhibitor, partial curve]"},
      {"compound": "O=c1c2c(C(F)(F)F)cc(C(F)(F)F)nc2[nH]n1-c1ccccc1", "Potency": "inconclusive: 14.1 µM [inhibitor, partial curve]"},
      {"compound": "Cc1ccc(C(=O)/C=C/Nc2ccc([N+](=O)[O-])cc2Br)cc1", "Potency": "inconclusive: 1.41 µM [inhibitor, full curve]"},
      {"compound": "Cc1cc(=O)oc2cc(OCC(O)CN3CCN(c4ccccc4)CC3)ccc12", "note": "(stereo unspecified)", "Potency": "inconclusive: 2.82 µM [inhibitor, full curve]"},
      {"compound": "Cc1ccc(Cl)cc1NC(=O)N(C)CCO", "Potency": "inactive"},
      {"compound": "CC(=O)Nc1ccccc1/C=C/c1ccc2c(C)cc(C)c(O)c2n1", "Potency": "inconclusive: 5.62 µM [inhibitor, partial curve]"},
      {"compound": "COc1ccc(N2CCN(c3ncnc4onc(C)c34)CC2)cc1", "Potency": "inconclusive: 10 µM [inhibitor, single point]"},
      {"compound": "Cc1cccc(N2CCN(C(=O)C3CCCN(C(=O)c4cc5sccc5n4C)C3)CC2)c1C", "note": "(stereo unspecified)", "Potency": "inconclusive: 17.8 µM [inhibitor, partial curve]"},
      {"compound": "O=c1ccc2ccc(O)c(O)c2o1", "Potency": "inconclusive: 28.2 µM [inhibitor, single point]"},
      {"compound": "CCOc1cc(NC(=O)c2ccco2)c(OCC)cc1NC(=O)CCC(=O)NCc1cccnc1", "Potency": "inconclusive: 5.62 µM [inhibitor, full curve, poor fit]"},
      {"compound": "COc1ccc(OCCCC(=O)Nc2ccc(N3CCCCC3)cc2)cc1", "Potency": "inconclusive: 2.51 µM [inhibitor, full curve]"},
      {"compound": "COc1ccc(-c2nn(-c3ccccc3)cc2/C=C\\C(=O)Nc2ccc(C(=O)O)cc2)cc1", "Potency": "inconclusive: 39.8 µM [inhibitor, single point]"},
      {"compound": "O=C1C=CC(=O)C(C2=C3C(=O)N(CCc4ccccc4)CC(=O)N3CCC2)=C1", "Potency": "active: 15.8 µM"},
      {"compound": "CC1(OC(=O)C2CCCC2)C(=O)C=C2C=C(c3ccsc3)N(CCc3ccccn3)C=C2C1=O", "note": "(stereo unspecified)", "Potency": "active: 3.98 µM"},
      {"compound": "O=C(CCCOc1ccc(Cl)cc1)N1CCCCC1", "Potency": "inactive"},
      {"compound": "COCC(=O)Nc1nnc(-c2ccc(C(C)(C)C)cc2)s1", "Potency": "inconclusive: 12.6 µM [inhibitor, partial curve, poor fit]"},
      {"compound": "Cc1ccc(C)c(Cn2nnc3c(=O)[nH]c(C4CCCN(C(=O)C5CCCCC5)C4)nc32)c1", "note": "(stereo unspecified)", "Potency": "inconclusive: 20 µM [inhibitor, partial curve]"},
      {"compound": "CSC1=NC(NCCCO)c2c(sc3c2CC(C)(C)OC3)N1", "note": "(stereo unspecified)", "Potency": "inactive"},
      {"compound": "COc1ccc(CCNC(=O)c2ccc(-c3ccc([N+](=O)[O-])cc3Cl)o2)cc1", "Potency": "inconclusive: 3.55 µM [inhibitor, partial curve]"},
      {"compound": "Cc1ccc(NC(=O)c2c(C)oc3ncnc(N4CCCCC4)c23)c(C)c1", "Potency": "inactive"},
      {"compound": "COc1cc2c(cc1OC)-c1cc(OCc3ccccc3Cl)nc(=O)n1CC2", "Potency": "inconclusive: 15.8 µM [inhibitor, partial curve]"},
      {"compound": "O=C(/C=C/Nc1ccccc1F)c1ccc(Br)cc1", "Potency": "inconclusive: 3.16 µM [inhibitor, full curve]"},
      {"compound": "Cc1cccc(NC(=S)N/N=C/c2cccn2Cc2ccc(F)cc2)c1", "Potency": "inactive"},
      {"compound": "Cc1ccc(C=Nc2ccc(N(C)C)cc2)o1", "Potency": "active: 10 µM"},
      {"compound": "Cc1ccc(NCc2ccncc2)c(Br)c1", "Potency": "inactive"},
      {"compound": "CCC1CN(C(=O)N2CCC(C(=O)NCc3ccccc3F)CC2)c2ccccc2O1", "note": "(stereo unspecified)", "Potency": "inactive"},
      {"compound": "Cc1c(Cc2ccc3c(c2)OCO3)sc(NC(=O)c2cccc3ccccc23)c1C(N)=O", "Potency": "inconclusive: 35.5 µM [inhibitor, single point]"},
      {"compound": "CCOc1ccc(C(=O)Nc2ccc(N3CCN(C)CC3)cc2)cc1[N+](=O)[O-]", "Potency": "inconclusive: 28.2 µM [inhibitor, partial curve]"},
      {"compound": "COc1ccc(/C=C/C(=O)Nc2cccc(F)c2)cc1", "Potency": "inconclusive: 39.8 µM [activator, single point]"},
      {"compound": "CN(C)S(=O)(=O)c1ccc2c(c1)N(CC(=O)N1CCC(C(N)=O)CC1)CCS2", "Potency": "inactive"},
      {"compound": "O=C(Nc1ccccc1N1CCCC1)c1ccco1", "Potency": "inconclusive: 3.98 µM [inhibitor, partial curve, poor fit]"},
      {"compound": "CCOc1ccc(N(C)S(=O)(=O)c2cc(-c3cnc(C)o3)ccc2OC)cc1", "Potency": "inconclusive: 14.1 µM [inhibitor, partial curve, poor fit]"},
      {"compound": "COc1cc(/C=N/O)c(Br)cc1OCC(=O)Nc1ccccc1C", "Potency": "inactive"},
      {"compound": "N#C/C(=C\\c1ccc(O)c(O)c1)C(N)=O", "Potency": "inconclusive: 12.6 µM [inhibitor, partial curve] and inconclusive: 28.2 µM [inhibitor, partial curve]"},
      {"compound": "O=C(Nc1nnc2n1CCS2)c1cc(C(F)(F)F)cc(C(F)(F)F)c1", "Potency": "inactive"},
      {"compound": "CC1=NN(c2ccc(S(=O)(=O)O)cc2Cl)C(=O)C1", "Potency": "inconclusive: 31.6 µM [inhibitor, partial curve]"},
      {"compound": "CNC(=O)OCc1cccc(COC(=O)NC)n1", "Potency": "inactive"},
      {"compound": "Cc1cccc(C)c1OCC(=O)N/N=C/c1cc2c(cc1[N+](=O)[O-])OCO2", "Potency": "inconclusive: 25.1 µM [inhibitor, partial curve]"}
    ]}
  ]
}
